# The other results are listed elsewhere or left out.
# Test system: T1, Caupolican (Caup) homeodomain DNA-binding domain
# T1 sequence: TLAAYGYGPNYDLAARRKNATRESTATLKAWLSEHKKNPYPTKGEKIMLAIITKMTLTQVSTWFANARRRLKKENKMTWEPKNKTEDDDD
# Experiment: PBM E-score (8-mer, recovered from the published 9-mer minima) (E-score (dimensionless, -0.5 to 0.5)); Drosophila protein; higher = stronger relative binding preference, active = 0.31 or more
# Procedure: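 Protein binding microarray (PBM): in vitro transcribed/translated Caupolican (Caup) homeodomain DNA-binding domain (residues 214-303) applied at 100 nM to a universal 8-mer PBM array (Agilent AMADID 015681). The 8-mer enrichment score (E-score, range -0.5 to 0.5) was computed, and each 9-mer score is the minimum E-score of its two constituent 8-mers. The E-score is the same for a 9-mer and its reverse complement; 0.31 is the stated binding threshold.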
row,Sequence,PBM E-score
1,CGGCCGGA,inactive: -0.243
2,GCTCGCAC,inactive: -0.225
3,AAGTCAAA,inactive: 0.0275
4,AAGCACGG,inactive: -0.0259
5,TGAGGACA,inactive: 0.194
6,AGACGACG,inactive: 0.0389
7,ATCCAGTA,inactive: 0.0685
8,GCATGCCC,inactive: -0.0714
9,AAAAGGAG,inactive: -0.148
10,GGGTTGAC,inactive: -0.0775
11,CCCTCACG,inactive: -0.194
12,AATCGTGG,inactive: 0.0224
13,AATTTTTG,inactive: 0.122
14,TCCGGGAA,inactive: -0.045
15,CAGAGATC,inactive: -0.0422
16,TAGGCACA,inactive: -0.0197
17,GTGATTTA,inactive: 0.129
18,CCCTTGTA,active: 0.337
19,CCTTTGTC,inactive: 0.0525
20,ATCATCGC,inactive: -0.0341
21,CTACAGAA,inactive: 0.0955
22,ATGCCCTC,inactive: -0.0602
23,GAGCTCGA,inactive: -0.11
24,CTCCGAAG,inactive: -0.206
25,AACGGCAC,inactive: -0.0386

row,Sequence,PBM E-score
1,CAGAAATA,inactive: 0.113
2,CACAGTCC,inactive: -0.0682
3,AATTCAGC,inactive: -0.0584
4,ATCCTGGC,inactive: -0.137
5,AGCACGAC,inactive: 0.00841
6,AATTTTGT,inactive: 0.166
7,GAAAGGGA,inactive: -0.224
8,GCACTAAC,inactive: -0.0452
9,AGCGGCTG,inactive: -0.181
10,GAACTCAA,inactive: -0.027
11,CTGTGCTC,inactive: -0.0136
12,ATGGTGCC,inactive: -0.135
13,AGCAGGGG,inactive: -0.213
14,CGGCAGAC,inactive: -0.256
15,AGCGGTTG,inactive: 0.0606
16,ACCAACGG,inactive: 0.0018
17,GCACCCGA,inactive: -0.242
18,AACGTGCT,inactive: 0.0642
19,AAATAATA,inactive: 0.171
20,AGACTTAT,inactive: 0.033
21,CAGTTATG,inactive: -0.0088
22,AGGCGTCG,inactive: -0.157
23,CCCCGCCA,inactive: -0.171
24,AGTATGCG,inactive: -0.013
25,AACCTTAG,inactive: -0.0445

row,Sequence,PBM E-score
1,GGACTTTA,inactive: -0.0365
2,TGTGCTAA,inactive: 0.0338
3,AACTCTCG,inactive: -0.0385
4,TCGTGAAA,inactive: 0.00205
5,TAAATACA,inactive: 0.302
6,GTGACAAA,inactive: 0.14
7,GGACCCGA,inactive: -0.186
8,ATGGTGGG,inactive: -0.195
9,CGCGCAGA,inactive: -0.107
10,AGGACATC,inactive: 0.233
11,CAGGCGAG,inactive: -0.158
12,TACTTACA,inactive: 0.296
13,TAATGAAA,inactive: 0.0832
14,GCGGCATA,inactive: -0.105
15,AACTCCTC,inactive: -0.00975
16,ATGGAGCA,≥ 0.00184
17,GCCCTACC,inactive: -0.141
18,CCGCCGTC,inactive: -0.23
19,GCCTACCC,inactive: -0.197
20,ATCGGAAA,inactive: 0.0807
21,GTTCAAGA,inactive: 0.0328
22,GGCTACAA,inactive: 0.081
23,ACGAATGA,inactive: 0.0985
24,CACACTAG,inactive: -0.0517
25,ACGACGTG,inactive: 0.198

row,Sequence,PBM E-score
1,TGACAGCA,inactive: 0.185
2,CGACTTGA,inactive: -0.0344
3,CTAGCCTC,inactive: -0.119
4,GAATTGAA,inactive: 0.062
5,ACCAGTGA,inactive: 0.0897
6,CAGCGGCA,inactive: -0.0898
7,AAGTCCAC,inactive: -0.034
8,GCGTATCA,inactive: 0.0565
9,ACTGAGCG,inactive: -0.118
10,GGCGTGAA,inactive: -0.0937
11,CCACTGTA,inactive: 0.0682
12,AATCGGAC,inactive: -0.00281
13,GCTCGAGC,inactive: -0.0243
14,AATAACTG,inactive: 0.122
15,GACAAGGC,inactive: 0.205
16,ACGGGAAA,inactive: -0.0251
17,ACAGGCTG,inactive: 0.0472
18,GAATTTAC,inactive: 0.121
19,ACAATGAC,inactive: 0.225
20,CGCCTGAA,inactive: -0.0974
21,AGGGGGTG,inactive: -0.271
22,ATAGGTCA,inactive: 0.11
23,ACATACGT,inactive: 0.206
24,CACACCCC,inactive: -0.109
25,CAGACTGA,inactive: -0.031

row,Sequence,PBM E-score
1,AGCAGACT,inactive: 0.0454
2,ACCCGGCG,inactive: -0.147
3,TATATACA,active: 0.355
4,CAAGGCAA,inactive: 0.0274
5,GGTACGTA,inactive: 0.0661
6,ACCCAAAA,inactive: -0.135
7,CGTGCGAA,inactive: -0.0655
8,GCCTTCGC,inactive: -0.196
9,AGGGCGAT,inactive: -0.0688
10,CCATATCC,inactive: -0.0382
11,AACATAGA,inactive: 0.232
12,CATGTGAC,inactive: 0.219
13,AACTTCTT,inactive: 0.0676
14,ACCGCAGG,inactive: -0.203
15,TAAACGAA,inactive: 0.0371
16,AGATGACC,inactive: -0.0558
17,CTTAACCA,inactive: 0.111
18,ATGAAGGC,inactive: -0.101
19,CGCAAGCA,inactive: -0.0904
20,CGCCCTCA,inactive: -0.158
21,ACATGTAT,active: 0.469
22,GGACTAGA,inactive: -0.104
23,ACGCGAAT,inactive: 0.047
24,AATGCGAG,inactive: -0.0192
25,AGTCGGTG,inactive: -0.0401

row,Sequence,PBM E-score
1,GCACCTAA,inactive: 0.0208
2,CACGATGG,inactive: -0.0392
3,AGAAGTGG,inactive: -0.0396
4,TATTAACA,active: 0.312
5,AACAATCT,inactive: 0.169
6,TGACATAA,active: 0.311
7,AAGGTAAA,inactive: 0.121
8,ACCATTAT,inactive: 0.069
9,CGCGTCGC,inactive: -0.18
10,AGTGTCGC,inactive: 0.082
11,AGTGGGAG,inactive: -0.0484
12,ATACACCA,inactive: 0.198
13,ACAACCTG,inactive: 0.275
14,ATAGATAT,inactive: 0.169
15,ACGTAAGG,inactive: -0.042
16,GCCTCGAC,inactive: -0.0572
17,CTCGTACC,inactive: 0.0909
18,CCATACTA,inactive: 0.188
19,AGATCTAG,inactive: -0.0346
20,AGCATACT,inactive: 0.073
21,ATTTGATA,inactive: 0.138
22,TCTGCAGA,inactive: -0.0364
23,TCTACGAA,inactive: 0.00894
24,GTATTTAA,inactive: 0.204
25,CGACTAAG,inactive: -0.0807

row,Sequence,PBM E-score
1,GGCACACC,inactive: -0.187
2,ATTTTCCC,inactive: -0.00887
3,GAAAAGAA,inactive: 0.0391
4,AAGCATGC,inactive: 0.122
5,AGCTGTGC,inactive: -0.0738
6,CAGGATGC,inactive: -0.0627
7,CGGTAGCA,inactive: 0.00728
8,ACGCGGCA,inactive: -0.142
9,AGGGCCGA,inactive: -0.181
10,CTGCTTTC,inactive: -0.0276
11,ATGGACAC,inactive: 0.166
12,AAGTAAAT,inactive: 0.161
13,AGCAAGAG,inactive: -0.0284
14,ACGCCGGC,inactive: -0.215
15,GCATATGC,inactive: -0.0493
16,AGGTAGCG,inactive: -0.101
17,TACACATA,active: 0.343
18,AGGGCTGA,inactive: -0.0874
19,ACTGAACA,inactive: 0.23
20,GAGGATAA,inactive: -0.0673
21,CCCGAACA,inactive: 0.079
22,GGTTGCAA,inactive: 0.00792
23,AGAATGTA,inactive: 0.247
24,ACGCCGCG,inactive: -0.138
25,AACTGCTT,inactive: -0.079

row,Sequence,PBM E-score
1,CGGAAATA,inactive: 0.0958
2,ATTGGTTA,inactive: 0.109
3,AATAGCCC,inactive: -0.131
4,ACGATCAC,inactive: 0.0466
5,ATGCTGGC,inactive: -0.0467
6,AAGTACCT,inactive: 0.124
7,CGAAATTC,inactive: -0.117
8,CGTCCCGA,inactive: -0.117
9,CAGAACGG,inactive: -0.04
10,ACACGTAT,inactive: 0.291
11,CCCTAGAA,inactive: -0.0811
12,CAATTACG,inactive: 0.0582
13,AATCACAG,inactive: 0.123
14,CTGAAACC,inactive: -0.0654
15,GCAAAACC,inactive: -0.167
16,AAACAAAT,≥ 0.296
17,AACCACCC,inactive: -0.0782
18,ACTGATCC,inactive: 0.062
19,GACTATAA,inactive: 0.0917
20,AAAACGGT,inactive: -0.00125
21,GCCCAGCC,inactive: -0.262
22,ATTTTGAC,inactive: 0.173
23,CTACCGAC,inactive: -0.0513
24,CCTCCACG,inactive: -0.165
25,ATTTGCGA,≥ 0.0754

row,Sequence,PBM E-score
1,CATCACCA,inactive: 0.0719
2,CGGGTAGA,inactive: -0.0905
3,AAGGGGAG,inactive: -0.308
4,GTTTGACA,inactive: 0.251
5,TGAAAGAA,≥ 0.0712
6,CCCGCCGC,inactive: -0.207
7,ACCTTTTC,inactive: -0.0418
8,TCTAAAAA,inactive: -0.0369
9,CTGCAGTA,inactive: 0.0473
10,ACGATAGA,inactive: 0.0577
11,ACGCACGT,≥ 0.00167
12,AAAAGAAT,inactive: 0.102
13,GACGCGAA,inactive: -0.107
14,AGATCCGG,inactive: -0.11
15,CCATGTTC,active: 0.368
16,ATCGCGGA,inactive: -0.111
17,GTGCGAAC,inactive: -0.133
18,AGCCTTTA,inactive: -0.0121
19,CTACAGTC,inactive: -0.0315
20,ACCACTCC,inactive: -0.0258
21,AGAAGATG,inactive: -0.029
22,ACAGGTAT,inactive: 0.203
23,CGCGTACC,inactive: -0.0687

# From the supplement of paper PMC3724861
